Data: publication PMC10726135
Some of the results follow. At the low end of the ranking the order means little. Measured with an extract: partners may take part in the binding.

Biological target: T1, HNF4alpha8 (COS-7 nuclear extract) (UniProt P41235-5)
T1 sequence: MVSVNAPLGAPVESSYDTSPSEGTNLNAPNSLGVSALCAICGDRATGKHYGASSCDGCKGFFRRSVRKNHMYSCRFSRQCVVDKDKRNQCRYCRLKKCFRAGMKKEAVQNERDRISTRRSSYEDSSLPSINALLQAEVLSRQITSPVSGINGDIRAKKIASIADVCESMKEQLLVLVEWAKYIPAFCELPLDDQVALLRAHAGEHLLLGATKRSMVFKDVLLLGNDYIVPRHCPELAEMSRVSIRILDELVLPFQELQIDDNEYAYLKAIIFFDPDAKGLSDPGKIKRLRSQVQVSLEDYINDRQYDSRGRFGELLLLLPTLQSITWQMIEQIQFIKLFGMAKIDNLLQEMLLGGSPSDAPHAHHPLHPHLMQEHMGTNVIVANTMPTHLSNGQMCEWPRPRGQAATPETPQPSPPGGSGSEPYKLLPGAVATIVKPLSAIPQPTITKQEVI
Assay: protein-binding microarray
Details: COS-7 nuclear extract on double-stranded Agilent 4x180k PBM; binding buffer, salt, pH and temperature not given; high values mean tight binding; double strand, one strand shown; sequences stand for … in …GCCTAGGGAGATTAGAGTATCGGTCGA

Row | Sequence | binding signal (log2 normalized intensity)
1 | ATGTCTTTCTGGCTGGAGAGGAGGTTATCT | 0.88
2 | CTGCCTCCCATCTTGCAGCTGACCCTGGCC | 3.39
3 | GCCCAGCATGCCCCGCGCCGCGTCCCTTCC | 1.32
4 | AGCCGTCTGGTAAATTTCTAACACTCCCCA | 2.15
5 | TTATAAACTTGTTTGGGATTAAAGGATCAA | 1.11
6 | GTCTCATTGCCCCTTGAGCTAAATAATTAC | 2.29
7 | ACTTCATCTAAGTGGGTCTAGGTTCTGGGG | 1.03
8 | GGAGCCACTGCAGCTTTCTGAGTAGGACAG | -1.25
9 | AGTCGACCCTCTCTGGATGCAGGTCGCCGG | 0.398
10 | TCTGTTAGGAATGTCATGCAGCTAAAAGCA | -1.37
11 | ATGCATTCCATATGGATTAAATCTTGTTGG | 0.559
12 | TCAGTCCAATTCACAGAACTCCCTAAGTGG | -1.24
13 | TCTGACTGCACTGCAATGACAATAAATTAT | -1.32
14 | TTAAGGGCAAAGGTTACAATTGTCCCCAAG | 5.54
15 | CGCATTTCTGCTTCTTCTCATTCTTGGAAT | 1.49
16 | GTGCAACAGGAGCCCAGAGACAGTGGAATC | -1.27
17 | TAATCTGGCTCCAAAGTCTATGTGTGCTTT | 2.41
18 | TGTCACACACAGACTTGGGTTCAAAGAGCA | 4.78
19 | AGGGTGACCCCTGTGGTACAGGCAGTGACT | 2.06
20 | TTGGGGTCAAGGCCTTTAAGAAGTAGGTGT | 1.03
21 | CAGTTTGAAATTAGGCAATATGAGTAGAGC | -1.23
22 | AAAACTCAGATTCCTATGGTAAATGAATAG | -1.3
23 | ACTCCAACTCAGCCCCCAGCATTATGAAAT | 5.05
24 | GTCACGTGGCTGCTGAGAGGATTAAAAGAT | -1.29

Row | Sequence | binding signal (log2 normalized intensity)
25 | GTAACAGGCCAAAGGGCAAGAACAATCTTG | 2.83
26 | CTTTGAAGCCCAGAACACTCTACCCCCTCC | 4.95
27 | TCAAAGAATGCCTGGGTCAAATTGGTGCTT | 1.01
28 | GCTGCTCAGCTGCCTAGAGGCCTGGGAATG | -1.21
29 | TTTTCTAGCTGAGTTGACCTGTGTTGACAG | 3.38
30 | ACTCAGGAAAGATCAGCTGAAAACTATGCA | -1.33
31 | AAACCAGCAGTATCTTTGTGTCACCAATGG | 0.739
32 | ACTTAGGGTTCAAAGGTTGTTGAGCACACA | 5.57
33 | ATACCTAGCTGTTTGCAGGGACAATGGATG | -0.0318
34 | GGAGGGGGCGGTTAAACATTCAGATTCCTG | -1.32
35 | GAATGCCTGGGTCAAATTGGTGCTTTCATC | 0.56
36 | TTGTATGGTTTTGTGCTAGAAAGAATGAGA | 1.25
37 | CCACAAAGTCTTAGCTCATTTCAGCCTTAA | -0.902
38 | CCCCTTTTAATACAAGTATTATCTTCCATT | 0.547
39 | ATGCCGGCGTGACCCCCACTGCCTGCCTGC | 4.1
40 | GCCAAAGTTCAACCATACACACATTCCAAT | 1.03
41 | GCTAATCCTACTTTATCTAAGTAAACTAGT | -0.793
42 | GCCCTAGGAATCCTGACCAGGGGCCAGCAA | -1.26
43 | GTCCCACCTGAGGCCAAGCAGCTGTGATGA | -0.794
44 | CGGCTGAGCGGCCTTCGCACCTGCCTGTCT | 0.936
45 | TCCTTTTTGGCCAGCCCCGGGAATTCTGGG | -1.44
46 | GAGGCTTATTCCGTACAAGGATTCATTTCC | -1.28
47 | CCGCACAGTGCAAACACACAATATTGACAT | -1.26
48 | GAGATCAGAGGAGGCACTTGTCTCACATCT | -1.14

Row | Sequence | binding signal (log2 normalized intensity)
49 | AGGCATTTCTGGAATTCTCTTCCCAACAGG | -1.27
50 | GGCTAATTACATCCAGAGTGGGACAAAGTT | -0.0774
51 | GGGTCATTAATTCCCAGGAATTGGCCTGTG | 0.7
52 | TGGAAGAAGCGGTTCTGCAGGTTCATGGGA | 1.02
53 | ACCACTCTTTCAGGGTGGGAAAGGAATGTA | -1.15
54 | CTTTGAACCAGATGGCCCTCTCCAAGGCGG | -1.27
55 | AAAAAAAAAAAAAAGGCAGTCCTTAGATCC | -1.34
56 | TTTCCAGTTAGGCAGGATGGGGTCATGATA | 3.09
57 | CCCAAGTAGAGAGCAGTCCTGCACATGAAT | -1.54
58 | AGACAGGAGTAGTCAAATTTGTCTAGCGCA | -1.26
59 | CTTTCATGCCGGCGTGACCCCCACTGCCTG | 4.74
60 | ATTGCAGACAGCATAGGAAGTGGGGAAGAA | -1.34
61 | TTTTAATTAGAACTGTAATTGAGTAACCAG | 0.406
62 | GAACTTTGATCAGCATTCAAATGAGGGCAG | 3.89
63 | CCTGTGGCCACAGAGCGCCTAACTATTTTG | -1.36
64 | GATCACCTGGTGGCCATCAAGCAGATCATC | -1.37
65 | TTTCTTTCTTTTCCCAAACCACGTTTCTGT | 1.02
66 | CCTGGGAATGCCTAGGGGGAAGCCCCTGCT | -1.49
67 | CCAAGAGCTTAACCTTTGCCATGTGACAAT | 2.73
68 | AGATTACAGCCACATGCTAACACACCTGGC | -1.35
69 | CACTCATGGTGTTTGCTTTGTGAAGGCTTA | 0.417
70 | GTCTCTTCCACCTGGAATGCACTTGTTCCG | 0.812
71 | CTCCTGCAGACCCTATTGGGCTAGCCGCTC | -1.36
72 | TCTTACTGTGTTGTCGTATTTACTCTAGAA | 1.21
